# Source: PubChem BioAssay AID1508624 (National Center for Advancing Translational Sciences (NCATS), 2021)
# The whole screen tested about 48,000 compounds, of which about 120 (0.25%) were called active. Inconclusive results (about 4%) are left out. The call rests on the fitted dose curve; in most records, active means well fitted activation curve with a large enough effect; inconclusive means small, poorly fitted or top-dose-only effect, or another doubt; inactive means no such curve, though single readings can be large or run the other way. The list shows a part of the results.
# Assay: Primary qHTS for Identification of Small Molecule Activators of Huntingtin-Antisense Promoter Activity; further: nearly all actives have a fitted effect of over 55% in size
# Settings: HEK293 HTT-AS promoter firefly luciferase reporter, 24 h; series mostly up to 57.5 µM; activity change, positive = activation: at the top concentration
# Procedure, shortened: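 Quantitative HTS used concentration series of up to 57.5 uM final on HEK293 luciferase reporter cells, 24 h at 37 degrees C. Readout was Dual-Glo firefly luminescence.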
# Potency means the concentration at half of the fitted maximal effect.
SMILES,"activity change, positive = activation",Potency
COc1ccc(NC(=O)CSc2nc3ccncc3[nH]2)c(OC)c1,inactive: -22.4%,
Cc1ccc(C)n1-c1c(C(=O)NCCCN2CCN(c3ccc(F)cc3)CC2)sc2ncccc12,inactive: 2.79%,
Cc1ccc2c(=O)cc(C(=O)Nc3sc4c(c3C(N)=O)CCCC4)oc2c1,inactive: 9.67%,
Cc1ccc(Cl)cc1-n1ncc2c(NCCCn3ccnc3)ncnc21,inactive: -3.78%,
O=C(C1CCN(S(=O)(=O)Cc2ccccc2)CC1)N1CCN(c2ccc(F)cc2)CC1,inactive: -25.7%,
O=C(Nc1ccc2c(c1)N(C1CCCC1)C(=O)c1ccccc1S2)c1cccc(F)c1,inactive: -29.8%,
CC(C)Oc1ccc(CNC(=O)CCn2c(=O)c3cccn3c3ccc(F)cc32)cc1,inactive: -7.81%,
COc1cccc(-n2c(=O)c3c(C)c(C(=O)N(C)C)sc3n(CC(=O)Nc3ccc(C)cc3Cl)c2=O)c1,inactive: -11.3%,
COc1cccc(CNC(=O)C2CCCN(c3ncnc4onc(-c5ccc(F)cc5)c34)C2)c1 (stereo not drawn),inactive: -4.56%,
CC(C)OCCCNC(=O)CN1C(=O)CSc2ccc(S(=O)(=O)N3CCCCC3)cc21,inactive: -9.99%,
O=C(NCCc1csc(-c2cccc(F)c2)n1)c1ccc(Br)o1,inactive: -21.8%,
Cc1ccc(Cl)cc1NCc1nnc2n1CCCCC2,inactive: -11.2%,
O=C1CC(c2nc(-c3cccc(Cl)c3)no2)CN1c1ccc2c(c1)OCCO2 (stereo not drawn),inactive: -39.1%,
Cc1n[nH]c(C)c1S(=O)(=O)N(CC(=O)NCc1ccccc1Cl)c1ccc(C(C)C)cc1,inactive: -35.3%,
Cc1ccc(-n2nnnc2C2CCN(S(=O)(=O)c3ccc(OC(F)(F)F)cc3)CC2)cc1,inactive: -0.321%,
CCOc1ccccc1CNC(=O)CCc1cn(Cc2ccc(Cl)cc2)c2ccccc12,inactive: -27.9%,
CCN(C(=O)Cn1c(=O)oc2cc(S(=O)(=O)N3CCCC3)ccc21)c1cccc(C)c1,inactive: -16.6%,
COc1ccc(NC(=O)CSc2nc(-c3ccco3)cc(C(F)(F)F)n2)c(OC)c1,inactive: -7.35%,
CCCCN(C)C(=O)C1CCC(CNS(=O)(=O)c2ccc3c(c2)CC(C)N3C(C)=O)CC1 (stereo not drawn),inactive: -36.9%,
CCCc1nn2c(=O)cc(COc3ccc(/C=C(\C#N)C(=O)Nc4ccc(F)cc4)cc3)nc2s1,inactive: -2.92%,
CCN(CC)C(=O)Cn1c(SCCOc2ccc(Cl)cc2)nc2ccccc21,inactive: 3.01%,
O=C(CCS(=O)(=O)c1cc2c(cc1Cl)NC(=O)CO2)NCCc1ccc(Cl)cc1,inactive: -7.45%,
CC(=O)N1c2ccccc2C(=O)C1N1CCN(c2ccc(F)cc2)CC1 (stereo not drawn),inactive: -17.3%,
COc1ccc(NC(=O)c2ccc(CNS(=O)(=O)c3ccc4c(c3)C(C)(C)C(=O)N4C)cc2)cc1,inactive: -35.5%,

SMILES,"activity change, positive = activation",Potency
OC[C@H]1O[C@@H](n2cnc3c(=S)nc[nH]c32)[C@H](O)[C@@H]1O,inactive: -57.3%,
COc1ccc(OC)c(S(=O)(=O)Nc2cc3c(C(C)=O)c(C)oc3c3ccccc23)c1,inactive: -27.2%,
COC(=O)c1c(NC(=O)COc2cc(C)c(Cl)c(C)c2)sc2c1CCCC2,inactive: 1.26%,
COc1cccc(C2CC(=O)Nc3c2c(=O)n(C)c2ncnn32)c1OC (stereo not drawn),inactive: -6.32%,
CCOc1ccc(NS(=O)(=O)c2ccc3c(c2)CCN3C(C)=O)cc1,inactive: -24.7%,
COc1ccc(-c2nnc(SCC(=O)Nc3ccc(C(C)=O)cc3)nc2-c2ccc(OC)cc2)cc1,inactive: 1.43%,
Cc1ccc(S(=O)(=O)NCC2CCC(C(=O)N(C)Cc3ccccc3)CC2)cc1 (stereo not drawn),inactive: -28%,
Cc1ccc(OCC(=O)N(Cc2ccco2)C2CCS(=O)(=O)C2)cc1 (stereo not drawn),inactive: 7.78%,
CC(Oc1ccc(F)cc1)C(=O)Nc1cc(-c2ccc(F)c(F)c2)no1 (stereo not drawn),inactive: -11.1%,
CCOc1ccc(CCNC(=O)c2c(C)oc3ncnc(N4CCOCC4)c23)cc1,inactive: -13.7%,
Cc1cc(C)cc(NC(=O)CN(C)S(=O)(=O)c2ccc3[nH]c4c(c3c2)CCCC4)c1,inactive: -25.2%,
Cc1ccc(NC(=O)CN2C(=O)COc3ccc(S(=O)(=O)N4CCCCCC4)cc32)cc1C,inactive: -34.6%,
COCCCNC(=O)CSc1nc2ccccc2c(=O)n1Cc1ccco1,inactive: 0.336%,
N#C/C(=C\c1ccc(-c2ccc(F)cc2F)o1)c1nc2ccccc2[nH]1,inactive: -0.128%,
CCOc1cccc(CNc2ccc(O)cc2)c1OCc1ccccc1Cl,inactive: -19.6%,
COc1ccc(CNC(=O)c2ccc3[nH]c(C)c(C)c3c2)c(OC)c1,inactive: -10.3%,
COc1ccc(C(=O)Nc2ccc(OCc3cc(=O)n4ccccc4n3)cc2)cc1,inactive: 12.5%,
CCc1nnc2c(NCCc3ccc(OC)c(OC)c3)nc3ccccc3n12,inactive: -14.1%,
COc1ccc(-c2onc(C)c2C)cc1S(=O)(=O)NCc1ccc(Br)cc1,inactive: -34.7%,
CCN(CC)CCOC(=O)C(c1ccccc1)C1CCCCC1 (stereo not drawn),inactive: -11.8%,
O=C(NC1CCCCC1)c1c[nH]c2ccc(S(=O)(=O)Nc3ccccc3F)cc2c1=O,inactive: -23.9%,
CCOC(=O)c1ccc(NC(=O)c2c(NCc3sccc3C)sc3c2CCCCC3)cc1,inactive: -14.6%,
CC(C)(C)c1ccc(C(=O)NC(Cc2c[nH]c3ccccc23)C(=O)OCC(=O)c2ccccc2)cc1 (stereo not drawn),inactive: 11.9%,
CC1CCCN(c2cc3c(cc2F)c(=O)c(S(=O)(=O)c2cccc(Cl)c2)cn3C)C1 (stereo not drawn),inactive: -13.5%,

SMILES,"activity change, positive = activation",Potency
COc1ccc(Cn2c(=O)[nH]c3cc(C(=O)N4CCN(c5cccc(OC)c5)CC4)ccc3c2=O)cc1,inactive: -23.8%,
Cc1cccc(OCC(=O)Nc2ccc(-c3nc4cc(C)ccc4o3)c(O)c2)c1,,active: 501 nM
CCC1CN(C(=O)N2CCC(C(=O)NCCC3=CCCCC3)CC2)c2cc(C)ccc2O1 (stereo not drawn),inactive: -16.4%,
CCn1cc2nc(SCc3ccc(C)cc3)n(CCc3ccccc3)c(=O)c2n1,inactive: -21.8%,
COc1ccc(S(=O)(=O)N(CC(=O)N(C)Cc2ccccc2)c2ccc(Cl)cc2)cc1,inactive: -24.9%,
Cc1ccc(OCC(=O)Nc2ccc(Cl)c(-c3nc4ccccc4[nH]3)c2)cc1C,inactive: -23.8%,
COc1cc(Cc2cnc(N)nc2N)cc(OC)c1OC,inactive: -10.2%,
COc1ccc(NC(=O)CSc2nnc(NC(=O)Nc3ccccc3)s2)c(OC)c1,inactive: -2.22%,
CCc1ccc(NC(=O)CSc2nc3ccccc3nc2Cc2ccccc2OC)cc1,inactive: -9.7%,
O=C(Nc1nnc(S(=O)(=O)N2CCN(c3ccc(F)cc3)CC2)s1)c1ccc(Cl)cc1,inactive: -8.82%,
COc1ccc(C)cc1NC(=O)C(=O)NCC1(c2ccccc2)CCCC1,inactive: -2.67%,
CCCCSCCCNC(=O)CN1C(=O)COc2ccc(S(=O)(=O)N3CCC(C)CC3)cc21,inactive: -25.4%,
Cc1ccc(Cl)cc1NC(=O)COCc1cc(-c2ccco2)on1,inactive: -7.47%,
CC(C)(C)c1ccc(C2NC(=O)c3n[nH]c(-c4cccs4)c32)cc1 (stereo not drawn),inactive: -42.1%,
Cc1ccc(NC(=O)Cn2c(CCC(=O)O)ccc2-c2ccc(Cl)cc2)cc1,inactive: -13%,
COC(=O)c1ccc(NC(=O)Cn2nc(C(=O)Nc3ccc(C)cc3)ccc2=O)cc1,inactive: -4.14%,
COc1ccccc1N1CCN(c2ncnc3c2nc2n3CCCC2)CC1,inactive: -32.6%,
Cc1ccc(Cn2cc(CCC(=O)NCc3ccccc3F)c3ccccc32)cc1,inactive: -18.7%,
CCN(CC)S(=O)(=O)c1ccc2c(c1)N(CC(=O)N(C)Cc1ccccc1)C(=O)CO2,inactive: -21.1%,
O=C(CNC(=O)c1ccc(Cl)cc1)OCc1cc(=O)n2ccsc2n1,inactive: -2.93%,
COc1ccc(-c2[nH]c3c(c2-c2c(-n4cccc4)n(C)c(=O)n(C)c2=O)c(=O)n(C)c(=O)n3C)cc1,inactive: -2.11%,
COc1cccc(C(=O)Nc2cc3cc(OC)ccc3oc2=O)c1,inactive: 0.0126%,
Cc1cc(C)c2c(n1)SCCN2C(=O)Nc1ccc(C(=O)Nc2cc(Cl)ccc2C)cc1,inactive: 1.19%,
Cc1cc(C(=O)NCCc2ccc(Cl)cc2)c2c(C)nn(-c3cccc(F)c3)c2n1,inactive: -15.4%,

SMILES,"activity change, positive = activation",Potency
COC(=O)c1cc2sc(Cl)cc2n1Cc1nc(-c2ccc(OC)cc2)oc1C,inactive: -0.7%,
COc1ccc(N(CC(=O)NCCc2cccc(C)c2)S(=O)(=O)c2c(C)noc2C)cc1,inactive: -32%,
COc1ccc(CNC(=O)CSc2ncc3c(n2)-c2cc(Cl)ccc2N(Cc2ccccc2)S3(=O)=O)cc1OC,inactive: -17.4%,
COc1ccccc1NC(=O)Cn1c(=O)n(CCc2ccccc2)c(=O)c2c3c(sc21)CN(C(C)=O)CC3,inactive: -39.6%,
Cc1nnc(SCc2nc(-c3ccc(Cl)cc3)no2)n1-c1ccc(F)cc1,inactive: -39.1%,
O=C(c1ccccc1)n1nc(-c2ccco2)nc1NCc1cccs1,inactive: 33.5%,
Cc1ccc(Cn2cc(/C=C(/C#N)C(=O)Nc3cccc(Cl)c3)c3ccccc32)cc1,inactive: -28.2%,
COc1cc2c(cc1OC)CN(CCc1ccc(NC(=O)c3cc(OC)c(OC)cc3NC(=O)c3cnc4ccccc4c3)cc1)CC2,inactive: -38.8%,
O=c1cc(-c2ccccc2)nc2cc(-c3ccc(F)cc3)[nH]n12,inactive: 0.246%,
CCC(=O)OCc1cnc(C)c2oc(=O)c(C(=O)Nc3ccccc3C(F)(F)F)cc12,inactive: -14.4%,
Cc1cccc(N(C)C(=O)CN(C)S(=O)(=O)c2ccc3[nH]c4c(c3c2)CCCC4)c1,inactive: -32.9%,
COc1cc2ccccc2cc1C(=O)Nc1cc(-c2nc3ccccc3o2)ccc1C,inactive: 13.9%,
COc1cccc(CNC(=O)C(NS(=O)(=O)c2ccc3c(c2)oc(=O)n3C)C(C)C)c1 (stereo not drawn),inactive: 0%,
Cc1c(C(=O)OCC2CCCCC2)[nH]c2c1C(=O)CC(c1ccc(Cl)cc1)C2 (stereo not drawn),inactive: -2.43%,
Cc1cccc(NC(=O)CSc2nc(C3CCCC3)nc3c2c(=O)n(C)c(=O)n3C)c1C,inactive: -8.52%,
Cc1nnsc1C(=O)Oc1ccc(C(C)C)cc1,inactive: -10.9%,
CCN(CC)C(=O)c1sc2c(c1C)c(=O)n(-c1ccc(C)c(C)c1)c(=O)n2Cc1cc(=O)n2c(C)cccc2n1,inactive: -25.6%,
COc1ccc2c(c1)-c1nc(NC(=O)c3ccccc3F)sc1CC2,inactive: 2.17%,
CCn1c(=O)cc(OCC(=O)NCc2ccccc2Cl)c2ccccc21,inactive: -17%,
N#Cc1ccccc1Cn1c(=O)n(CCCCC(=O)NCc2ccc3c(c2)OCO3)c(=O)c2ccccc21,inactive: -24.3%,
Cc1ccc(CNC(=O)c2nc(-c3ccc(Cl)cc3)n3c2CCCCC3)cc1,"inactive: -9.95% [at 11.5 µM, percent change from vehicle, -100% = no light]",
